Data taken from PubChem BioAssay AID1963971 (Molecular Pharmacology Branch, DTP, NCI, 2024).
Not every entry of the source has a single result; some have several. The other results are left out here. The source may hold further records. The values listed for one entry repeat one measurement in other runs, samples, wells, individuals or studies.

Tested on: 953936-095-R-J2-PDC spheroids with HUVEC/MSC, viability
Assay: Anticancer human tumor 953936-095-R-J2-PDC patient-derived cervical squamous cell carcinoma cell line growth inhibition [PI3K]
Conditions: for viability, T/C: compound alone 3.16 µM, stronger effect = lower value
Source text: Combinatorial screen of targeted agents with the PI3K inhibitors inavolisib, alpelisib, duvelisib, and copanlisib in multi-cell type tumor spheroids
A high-throughput screen of multi-cell type tumor spheroids was designed to identify active combinations of targeted small molecules and PI3K pathway inhibitors. Complex spheroids include a stromal component modeled by human endothelial cells (HUVEC) and fibroblasts modeled by human mesenchymal stem cells (MSCs). The concentration ranges selected for each drug and investigational agent were based upon clinically achievable concentrations if the clinical Cmax of the agent was known.
Compounds. The drugs and investigational agents: inavolisib (NSC800729), alpelisib (NSC765974), duvelisib (NSC772469), copanlisib (NSC816437), ipatasertib (NSC767898), afuresertib (NSC778305), talazoparib (NSC767125), sapanisertib (NSC764658), selumetinib (NSC741078), tovorafenib (DAY101, NSC766906), vemurafenib (NSC761431), ravoxertinib (NSC781343), sotorasib (NSC818433), MRTX1133 (NSC 836407), abemaciclib (NSC 768073), palbociclib (NSC758247), venetoclax (NSC 766270), SY5609 (NSC837396), enzalutamide (NSC755605), and darolutamide (NSC825331), were obtained from the National Cancer Institute (NCI) Developmental Therapeutics Program Chemical Repository. The FDA-approved anticancer drug set is available from the NCI Developmental Therapeutics Program. […] The stock solutions were prepared in dimethyl sulfoxide (DMSO, Sigma-Aldrich, St. Louis, MO, cat. D2650) at 800-fold the tested concentration and stored at -70 degrees C prior to their use. All drugs and investigational agents were tested over a range starting from a high concentration at or near the clinical Cmax and decreasing in half-log increments. If the clinical Cmax for an agent had not been determined, the highest concentration tested was 10 microM.
Cell Culture. All cells were maintained in an incubator at 37 degrees C and 5% CO2 with 95% humidity. The PDC lines were cultured according to standard operating procedures established by the NCI PDMR (https://pdmr.cancer.gov/sops/default.htm). All PDCs were thawed and cultured in Matrigel-coated flasks prepared with a working solution of 1X Ham's F-12 nutrient mix, without supplementation (Invitrogen, Waltham, MA, cat. 11765054), 100 U/mL penicillin-streptomycin (Invitrogen, cat. 15140122), and 2.5% Matrigel (Corning Inc., Corning, NY, cat. 354248) for the first three passages. The 354836-022-R-J1-PDC, 475296-252-R-J1-PDC, and 997726-040-R-J2-PDC lines were cultured in 6A media, which includes advanced DMEM/F-12 (Thermo Fisher Scientific, cat. 12634028), 10 mM HEPES (Thermo Fisher Scientific, cat. 15630080), 1X GlutaMAX supplement (Thermo Fisher Scientific, cat. 35050061), 0.1 mg/mL primocin (InvivoGen, San Diego, CA, cat. ant-pm-2), 10% defined fetal bovine serum, heat inactivated (HyClone Laboratories Inc., Logan, UT, cat. SH30070.03HI), 50% L-WRN conditioned media (ATCC, cat. CRL-3276), 1.25 mM N-Acetyl-L-cysteine (Sigma-Aldrich, cat. A9165), 10 mM nicotinamide (Sigma-Aldrich, cat. N0636), 1X B-27 supplement (Thermo Fisher Scientific, cat. 17504044), 1X N-2 supplement (Thermo Fisher Scientific, cat. 17502048), and 10 microM Y-27632 dihydrochloride (Tocris Bioscience, Bristol, United Kingdom, cat. 1254). The 624824-186-R-J2-PDC line was cultured in 6C/Colon 1B media, which includes all 6A media components plus 50 ng/mL human EGF recombinant protein (Thermo Fisher Scientific, cat. PHG0311). […]
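Also: spheroids exposed to compounds for seven days before read-out.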

| SMILES | viability, T/C | IC50 (compound alone) |
| --- | --- | --- |
| C=CC(=O)N1CCN(c2nc(=O)n(-c3c(C)ccnc3C(C)C)c3nc(-c4c(O)cccc4F)c(F)cc23)C(C)C1 (stereo not given) | 132, 121, 106, 117% | – |
| CNC(=O)c1ccc(N2C(=S)N(c3ccc(C#N)c(C(F)(F)F)c3)C(=O)C2(C)C)cc1F | 111, 88.5, 94.6, 85.4% | – |
| CC1(C)CCC(Nc2ncc(C(F)(F)F)c(-c3c[nH]c4c(P(C)(C)=O)c(C#N)ccc34)n2)CN1 (stereo not given) | – | < 31.6 nM, 3.3 µM, 3.65 µM, 3.36 µM |
| CC1(C)CCC(CN2CCN(c3ccc(C(=O)NS(=O)(=O)c4ccc(NCC5CCOCC5)c([N+](=O)[O-])c4)c(Oc4cnc5[nH]ccc5c4)c3)CC2)=C(c2ccc(Cl)cc2)C1 | 140, 136, 102, 105% | – |
| CC(Cn1ccc(-c2ccc(C#N)c(Cl)c2)n1)NC(=O)c1cc(C(C)O)[nH]n1 (stereo not given) | 97.9, 93.3, 119, 107% | – |
